We go through nine molecules from publication PMC6104169.

Protein sequences, listed by entry. Tags and fused reporters are not part of them. Lines headed by an entry give the natural chain unless they say otherwise; changes in a name come on top. Chains listed by the source or under a name are the forms on record and can include a tag or linker. Residues count along the entry.
UniProt P42227: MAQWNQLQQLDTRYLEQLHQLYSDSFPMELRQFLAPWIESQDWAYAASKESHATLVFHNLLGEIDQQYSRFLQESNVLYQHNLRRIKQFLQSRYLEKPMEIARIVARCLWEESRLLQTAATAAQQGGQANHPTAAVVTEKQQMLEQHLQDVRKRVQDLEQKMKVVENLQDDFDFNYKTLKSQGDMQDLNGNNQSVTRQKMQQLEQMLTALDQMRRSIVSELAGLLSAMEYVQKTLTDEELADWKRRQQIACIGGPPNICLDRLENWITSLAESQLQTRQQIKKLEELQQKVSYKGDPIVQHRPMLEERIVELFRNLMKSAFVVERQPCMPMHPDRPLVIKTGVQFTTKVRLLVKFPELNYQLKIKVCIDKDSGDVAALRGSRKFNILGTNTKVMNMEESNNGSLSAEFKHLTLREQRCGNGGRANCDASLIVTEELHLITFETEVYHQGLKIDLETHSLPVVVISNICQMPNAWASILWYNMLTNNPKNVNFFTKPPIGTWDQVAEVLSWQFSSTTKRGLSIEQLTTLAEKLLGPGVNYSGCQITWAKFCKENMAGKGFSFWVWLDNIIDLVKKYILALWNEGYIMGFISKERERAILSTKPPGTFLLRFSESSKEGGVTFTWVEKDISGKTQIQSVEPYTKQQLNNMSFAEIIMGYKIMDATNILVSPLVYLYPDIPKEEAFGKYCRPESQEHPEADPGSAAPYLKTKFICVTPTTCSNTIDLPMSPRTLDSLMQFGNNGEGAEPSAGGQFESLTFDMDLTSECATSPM
HA-tagged NTD of STAT3(1–134): residues 1-134 of P42227
BD-134K (STAT3 N-terminal domain, 1–134 aa, change from E to K at position 16) (P42227, form named): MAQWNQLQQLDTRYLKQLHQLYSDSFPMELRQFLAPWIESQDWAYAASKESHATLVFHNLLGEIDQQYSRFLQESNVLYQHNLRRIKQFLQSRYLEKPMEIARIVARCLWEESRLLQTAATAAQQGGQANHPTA
UniProt Q9WVL2: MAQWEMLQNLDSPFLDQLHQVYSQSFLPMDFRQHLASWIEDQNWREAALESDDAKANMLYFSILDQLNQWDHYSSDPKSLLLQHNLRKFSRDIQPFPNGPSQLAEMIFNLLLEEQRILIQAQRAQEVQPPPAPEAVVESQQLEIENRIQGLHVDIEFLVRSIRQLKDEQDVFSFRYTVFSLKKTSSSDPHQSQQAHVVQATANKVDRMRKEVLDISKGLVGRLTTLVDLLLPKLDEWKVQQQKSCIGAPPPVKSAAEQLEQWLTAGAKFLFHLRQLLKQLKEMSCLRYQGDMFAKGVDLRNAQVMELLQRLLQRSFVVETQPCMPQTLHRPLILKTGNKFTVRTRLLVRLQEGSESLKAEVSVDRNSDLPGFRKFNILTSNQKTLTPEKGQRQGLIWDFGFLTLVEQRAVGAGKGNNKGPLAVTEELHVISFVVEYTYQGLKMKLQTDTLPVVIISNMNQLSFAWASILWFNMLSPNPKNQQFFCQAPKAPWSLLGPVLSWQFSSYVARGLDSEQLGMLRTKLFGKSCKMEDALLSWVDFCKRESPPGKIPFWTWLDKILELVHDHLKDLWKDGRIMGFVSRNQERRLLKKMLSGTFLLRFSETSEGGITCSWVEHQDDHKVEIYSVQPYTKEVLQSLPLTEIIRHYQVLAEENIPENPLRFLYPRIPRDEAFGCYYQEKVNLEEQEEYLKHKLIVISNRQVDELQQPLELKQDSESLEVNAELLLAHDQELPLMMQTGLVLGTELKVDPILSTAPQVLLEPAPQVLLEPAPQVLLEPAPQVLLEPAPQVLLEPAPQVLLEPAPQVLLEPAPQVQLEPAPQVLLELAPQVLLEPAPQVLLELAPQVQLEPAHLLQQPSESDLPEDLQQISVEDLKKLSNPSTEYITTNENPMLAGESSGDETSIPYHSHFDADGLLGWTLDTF

Assay [1] deals with T1, endogenous PLSCR2 (ML-1 cells) (mouse (endogenous in ML-1)) (UniProt Q9DCW2).
T1 sequence: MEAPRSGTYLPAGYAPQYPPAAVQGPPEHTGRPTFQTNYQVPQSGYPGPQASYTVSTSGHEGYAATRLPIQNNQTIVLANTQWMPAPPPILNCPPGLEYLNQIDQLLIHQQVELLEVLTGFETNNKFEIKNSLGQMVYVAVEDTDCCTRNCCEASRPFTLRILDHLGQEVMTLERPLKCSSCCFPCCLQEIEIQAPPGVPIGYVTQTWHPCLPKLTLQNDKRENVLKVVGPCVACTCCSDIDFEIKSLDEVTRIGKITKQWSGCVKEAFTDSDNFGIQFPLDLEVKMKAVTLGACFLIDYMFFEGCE
The assay is described as follows: co-IP; ML-1 cells stimulated with mouse IFN-α4 (1,000 U/ml) for the indicated times or untreated; immunoprecipitated with anti-PLSCR2 antibody, immunoblotted for pSTAT3 and STAT3; endogenous proteins.

For assay [2], the target named is HA-tagged NTD of STAT3(1–134) (UniProt P42227). The assay is described as follows: co-IP; HEK293T cells cotransfected with HA-tagged and myc-tagged constructs; rabbit anti-HA antibody on protein A agarose, IP lysis buffer (300 mM NaCl, 50 mM HEPES pH 7.6, 1% Triton X-100), 4°C overnight; immunoblot with anti-myc and anti-HA; in Figure 1C with or without human IFN-α2 (1,000 U/ml, 30 m).

In assay [3] the target is HA-tagged full-length STAT3(1–770) (UniProt P42227). The assay is described as follows: co-IP; prey fragments expressed in HEK293T cells, tested with full-length STAT3 or STAT3ΔN (Figure S1F; legend not shown).
Assay [4] has as its target BD-134K (STAT3 N-terminal domain, 1–134 aa, change from E to K at position 16) (mouse) (UniProt P42227). The assay is described as follows: two-hybrid; yeast two-hybrid screen; bait BD-134K against a normalized mouse cDNA library, ~2 × 10^6 transformants.
Assay [5] concerns the target HA-tagged full-length STAT3(1–770) (UniProt P42227). The assay is described as follows: co-IP; HEK293T cells cotransfected with HA-tagged and myc-tagged constructs; rabbit anti-HA antibody on protein A agarose, IP lysis buffer (300 mM NaCl, 50 mM HEPES pH 7.6, 1% Triton X-100), 4°C overnight; immunoblot with anti-myc and anti-HA; in Figure 1C with or without human IFN-α2 (1,000 U/ml, 30 m).

Assay [6] deals with T2, HA-tagged murine STAT1 (pLPC-FH2) (mouse) (UniProt P42225).
T2 sequence: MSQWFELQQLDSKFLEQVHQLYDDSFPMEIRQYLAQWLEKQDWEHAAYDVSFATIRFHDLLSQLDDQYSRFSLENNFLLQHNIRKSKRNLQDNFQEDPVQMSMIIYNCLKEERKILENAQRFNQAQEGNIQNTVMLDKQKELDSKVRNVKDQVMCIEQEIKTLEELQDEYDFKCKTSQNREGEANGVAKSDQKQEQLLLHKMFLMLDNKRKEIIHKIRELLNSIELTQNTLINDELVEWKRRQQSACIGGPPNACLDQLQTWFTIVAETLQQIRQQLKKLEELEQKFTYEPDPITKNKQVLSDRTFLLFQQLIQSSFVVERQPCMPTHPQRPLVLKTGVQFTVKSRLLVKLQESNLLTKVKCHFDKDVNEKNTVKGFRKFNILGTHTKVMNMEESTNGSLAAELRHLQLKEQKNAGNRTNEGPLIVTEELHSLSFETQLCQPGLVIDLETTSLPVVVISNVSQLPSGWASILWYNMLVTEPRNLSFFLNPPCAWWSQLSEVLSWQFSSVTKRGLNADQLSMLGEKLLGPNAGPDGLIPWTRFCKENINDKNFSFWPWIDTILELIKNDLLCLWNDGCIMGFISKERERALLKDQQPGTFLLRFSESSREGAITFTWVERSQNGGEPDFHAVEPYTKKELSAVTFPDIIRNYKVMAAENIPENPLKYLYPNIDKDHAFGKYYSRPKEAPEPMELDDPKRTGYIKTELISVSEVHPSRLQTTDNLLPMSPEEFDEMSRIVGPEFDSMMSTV
Described as above.

The target of assay [7] is HA-tagged murine STAT2 (pLPC-FH2) (mouse) (UniProt Q9WVL2). The description is as above.
Assay [8] has as its target T3, HA-tagged murine IRF9 (pLPC-FH2) (mouse) (UniProt Q61179).
T3 sequence: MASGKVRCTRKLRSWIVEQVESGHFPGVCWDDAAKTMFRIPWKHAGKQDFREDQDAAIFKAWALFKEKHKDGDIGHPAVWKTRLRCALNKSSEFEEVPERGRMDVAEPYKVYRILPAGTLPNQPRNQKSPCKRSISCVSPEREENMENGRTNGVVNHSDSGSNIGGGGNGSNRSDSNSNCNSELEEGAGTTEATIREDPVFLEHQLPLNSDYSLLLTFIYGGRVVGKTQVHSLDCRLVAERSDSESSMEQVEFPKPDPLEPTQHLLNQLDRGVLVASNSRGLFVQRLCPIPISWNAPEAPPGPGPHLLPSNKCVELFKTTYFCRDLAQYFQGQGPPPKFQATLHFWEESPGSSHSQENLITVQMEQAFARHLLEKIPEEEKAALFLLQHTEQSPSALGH
Described as above.

Assay [9] has as its target endogenous STAT2 (ML-1 nuclear extracts) (mouse (endogenous in ML-1)) (UniProt Q9WVL2). The assay is described as follows: co-IP; endogenous PLSCR2 co-immunoprecipitated by anti-STAT2 or anti-STAT1 antibody (Figure S6D; legend not shown).

No constants are given. Whether binding was seen depends on the method and setting. For some assays here: In cells and extracts the contact can be indirect. Some results given as binding are weak or reduced against the parent protein; the word gives no strength. For some assays here: Where a sequence is shown, tags or fusion partners need not be part of it.

In the case of “endogenous tyrosine-phosphorylated STAT3 (pY-STAT3, ML-1 cells treated with IFN-α4) (from UniProt P42227 1-770)”, the binding entry in [1] is on record as “binds”.
As for “endogenous STAT3 (ML-1 cells) (from UniProt P42227 1-770)”, the binding result in [1] is on record as “binds”.

B1: myc-PLSCR2(171–307) (domain or fragment, UniProt Q9DCW2 171-307)
chain: MTLERPLKCSSCCFPCCLQEIEIQAPPGVPIGYVTQTWHPCLPKLTLQNDKRENVLKVVGPCVACTCCSDIDFEIKSLDEVTRIGKITKQWSGCVKEAFTDSDNFGIQFPLDLEVKMKAVTLGACFLIDYMFFEGCE
In the case of B1, the binding entry in assay [2] is reported as “binds”.

B2: myc-PLSCR2(188–307) (domain or fragment, UniProt Q9DCW2 188-307)
chain: LQEIEIQAPPGVPIGYVTQTWHPCLPKLTLQNDKRENVLKVVGPCVACTCCSDIDFEIKSLDEVTRIGKITKQWSGCVKEAFTDSDNFGIQFPLDLEVKMKAVTLGACFLIDYMFFEGCE
Turning to B2, the binding entry in [2] was “no binding”.

B3: myc-PLSCR2(109–307) (ΔN) (domain or fragment, UniProt Q9DCW2 109-307)
chain: HQQVELLEVLTGFETNNKFEIKNSLGQMVYVAVEDTDCCTRNCCEASRPFTLRILDHLGQEVMTLERPLKCSSCCFPCCLQEIEIQAPPGVPIGYVTQTWHPCLPKLTLQNDKRENVLKVVGPCVACTCCSDIDFEIKSLDEVTRIGKITKQWSGCVKEAFTDSDNFGIQFPLDLEVKMKAVTLGACFLIDYMFFEGCE
As to B3, the binding result in assay [2] and in assay [3] was “binds” throughout.

B4: PLSCR2 prey fragment (109–307 aa), yeast two-hybrid (domain or fragment, UniProt Q9DCW2 109-307)
chain: HQQVELLEVLTGFETNNKFEIKNSLGQMVYVAVEDTDCCTRNCCEASRPFTLRILDHLGQEVMTLERPLKCSSCCFPCCLQEIEIQAPPGVPIGYVTQTWHPCLPKLTLQNDKRENVLKVVGPCVACTCCSDIDFEIKSLDEVTRIGKITKQWSGCVKEAFTDSDNFGIQFPLDLEVKMKAVTLGACFLIDYMFFEGCE
Regarding B4, the binding result in assay [4] was “binds”.

B5: myc-PLSCR2(1–116) (NTD) (domain or fragment, UniProt Q9DCW2 1-116)
chain: MEAPRSGTYLPAGYAPQYPPAAVQGPPEHTGRPTFQTNYQVPQSGYPGPQASYTVSTSGHEGYAATRLPIQNNQTIVLANTQWMPAPPPILNCPPGLEYLNQIDQLLIHQQVELLE
With B5, the binding result in [2] is listed as “no binding”.

B6: myc-tagged full-length murine PLSCR2(1–307) (protein, UniProt Q9DCW2 1-307)
chain: MEAPRSGTYLPAGYAPQYPPAAVQGPPEHTGRPTFQTNYQVPQSGYPGPQASYTVSTSGHEGYAATRLPIQNNQTIVLANTQWMPAPPPILNCPPGLEYLNQIDQLLIHQQVELLEVLTGFETNNKFEIKNSLGQMVYVAVEDTDCCTRNCCEASRPFTLRILDHLGQEVMTLERPLKCSSCCFPCCLQEIEIQAPPGVPIGYVTQTWHPCLPKLTLQNDKRENVLKVVGPCVACTCCSDIDFEIKSLDEVTRIGKITKQWSGCVKEAFTDSDNFGIQFPLDLEVKMKAVTLGACFLIDYMFFEGCE
As to B6, the binding entry is reported as “binds” in assay [5]; “no binding” in assay [6]; “binds” in assay [7]; “no binding” in assay [8]; “binds” in assay [2].

B7: endogenous PLSCR2 (ML-1 cells) (protein, UniProt Q9DCW2 1-307)
chain: MEAPRSGTYLPAGYAPQYPPAAVQGPPEHTGRPTFQTNYQVPQSGYPGPQASYTVSTSGHEGYAATRLPIQNNQTIVLANTQWMPAPPPILNCPPGLEYLNQIDQLLIHQQVELLEVLTGFETNNKFEIKNSLGQMVYVAVEDTDCCTRNCCEASRPFTLRILDHLGQEVMTLERPLKCSSCCFPCCLQEIEIQAPPGVPIGYVTQTWHPCLPKLTLQNDKRENVLKVVGPCVACTCCSDIDFEIKSLDEVTRIGKITKQWSGCVKEAFTDSDNFGIQFPLDLEVKMKAVTLGACFLIDYMFFEGCE
As to B7, the binding entry in assay [9] is “binds”.
